Data on 42 molecules can be found in ChEMBL document CHEMBL4888484, “Replenishing the malaria drug discovery pipeline: Screening and hit evaluation of the MMV Hit Generation Library 1 (HGL1) against asexual blood stage Plasmodium falciparum ,using a nano luciferase reporter read-out” (2022).

The whole screen tested about 150,000 compounds, of which about 540 (0.36%) showed an effect of 50% or more. This is one part of the list.

In this test the test system is Plasmodium falciparum. In words: Primary screen in NF54 nanoGlo assay, in single point, at 2uM, 72h; a lower Z score goes with more inhibition. It is filed as functional, Erythrocyte. As to conditions: timepoint 72 hour.
Broadly, the % Inhibition is the relative decrease from the control value, in per cent. In the case of `CN(C)C[C@H]1CN(CC(=O)N(C)Cc2ccsc2)CCO1`, the “% Inhibition” value is given as -7% and the Z score was found to be 0.94.

For the molecule `O=C(OCCOc1ccccc1)c1ccc2nccnc2c1`, the “% Inhibition” value was -2% and the Z score is recorded as 0.26.

For the molecule `O=C(O)C(c1ccccc1Br)N1CCCC(n2ccnn2)C1` (centres undefined), the “% Inhibition” value is on record as -6% and the Z score was 0.96.

As to `Fc1ccc(-c2ccc(N3CCCC3)nn2)cc1Cl`, the “% Inhibition” value is recorded as -11% and the Z score came to 2.16.

For the molecule `Cc1ccc(-n2ccc(=O)c(C(=O)Nc3ccc(S(=O)(=O)Nc4nc(C)cc(C)n4)cc3)n2)cc1`, the “% Inhibition” value came to 1% and the Z score is given as -0.13.

As to `Cc1noc(CCN[C@@H](C)c2ccc(S(C)(=O)=O)c(F)c2)n1`, the “% Inhibition” value is on record as 1% and the Z score is -0.17.

Consider `O=C(Nc1nc2n(n1)CCCC2)N1CC(c2ccccc2)C2COCCC21` (centres undefined), for which the “% Inhibition” value is on record as 4% and the Z score is -0.32.

`COC(=O)c1ccccc1NC(=O)c1ccc(-n2nnc3cccnc32)cc1Cl`: the “% Inhibition” value was -6% and the Z score turned out to be 0.73.

For the molecule `Cc1cnn(-c2cnc3ccccc3c2)c1`, the “% Inhibition” value is -17% and the Z score worked out at 1.67.

In the case of `O=C(CN1CCOCC1)N1CCN(C(=O)C2(c3cccc(Cl)c3)CCCCC2)CC1`, the “% Inhibition” value was determined as 1% and the Z score was -0.14.

As for `CCCCc1nc(CN2CCC(CCC(=O)N(C)Cc3ccccc3)CC2)c[nH]1`, the “% Inhibition” value is on record as -3% and the Z score is 0.33.

Regarding `O=C(NCc1ccc(F)cc1F)c1ccc(Oc2nccnc2N2CCCCC2)cc1`, the “% Inhibition” value is given as 5% and the Z score was -0.54.

For the molecule `NC(=O)c1cc(NC(=O)c2nccnc2N)c[nH]1`, the “% Inhibition” value is -3% and the Z score is reported as 0.61.

Consider `O=C(c1nc2ccccc2s1)N1CCN(C(=O)c2cnn3c2CCCC3)CC1`, for which the “% Inhibition” value was -2% and the Z score is listed as 0.25.

Consider `C[C@@H](C1CCN(Cc2cn(C)nc2-c2ccccc2F)CC1)N1CCCC1`, for which the “% Inhibition” value is 12% and the Z score is -2.09.

`O=S(=O)(NCc1ccc(C(F)(F)F)nc1N1CCC(C(F)(F)F)CC1)C(F)(F)F`: the “% Inhibition” value came to 34% and the Z score is reported as -0.58.

On to `O=C(NC(C1CCCC1)C1CCCC1)N1CCO[C@@H](CO)C1`, for which the “% Inhibition” value was -4% and the Z score is given as 0.48.

For the molecule `CC(=O)N1CCC(C(=O)N2CC[C@]34C(=O)N(Cc5cn(nn5)CCCOc5cccc(c5)[C@@H]23)c2ccccc24)CC1`, the “% Inhibition” value is reported as -13% and the Z score is 1.43.

Turning to `CC(C)c1nsc(CN2CCC3(CC2)CC3(F)F)n1`, the “% Inhibition” value is -9% and the Z score is given as 1.64.

As for `CC(C)C[C@H]1C(=O)N2C[C@@H](N(C)C)C[C@H]2CN1C(=O)c1cccn1C`, the “% Inhibition” value is -9% and the Z score is 1.06.

For the molecule `COC[C@H]1CCN(Cc2cn(-c3ccccc3C)nc2-c2ccc(OC)c(F)c2)C1`, the “% Inhibition” value is listed as -4% and the Z score is 0.53.

In the case of `CC1(CO)CC(O)CN1CCCc1nc(-c2ccccc2)no1` (centres undefined), the “% Inhibition” value is given as -4% and the Z score was 0.69.

In the case of `CC(=O)N1CCCN(C2CN(Cc3ccccc3Cl)CC2C)CC1` (centres undefined), the “% Inhibition” value is given as -9% and the Z score came to 1.1.

Take `CC(=O)N1CCc2cc(S(=O)(=O)N3CCCc4c(C)ccc(F)c43)ccc21`: the “% Inhibition” value is listed as -11% and the Z score came to 1.97.

With `Cc1nc(CNS(=O)(=O)c2c(F)cccc2Cl)oc1C`, the “% Inhibition” value is recorded as -2% and the Z score was 0.17.

For `CCS(=O)(=O)CCNC(=O)Nc1c(F)cccc1Cl`, the “% Inhibition” value is on record as -13% and the Z score amounted to 2.48.

As for `Cc1cc2n(n1)[C@H](C(F)(F)F)CCN2C(=O)CCc1ccco1`, the “% Inhibition” value was -11% and the Z score is 1.05.

In the case of `CC(C)CCNC(=O)N1CCN(c2nc3cccnc3n(C)c2=O)CC1`, the “% Inhibition” value is recorded as -5% and the Z score was 0.71.

In the case of `CC(=O)N1CCC(NCc2ccc(C)s2)C(C)C1` (centres undefined), the “% Inhibition” value was -16% and the Z score came out at 1.78.

Consider `Cc1scc(C(=O)NC2(CC(=O)O)CCOCC2)c1C`, for which the “% Inhibition” value is recorded as -8% and the Z score came out at 1.1.

With `Cn1ncc2c(Nc3cnn(C(C)(C)C)c3)ncnc21`, the “% Inhibition” value is reported as 6% and the Z score was -0.9.

As for `C#CCOc1ccc(C2Nc3ccc(CC)cc3[C@H]3OCC[C@@H]23)cc1` (some centres undefined), the “% Inhibition” value was -14% and the Z score was determined as 2.26.

As for `O=C(NCc1cnoc1-c1ccc(F)cc1)c1ccncc1`, the “% Inhibition” value came out at 9% and the Z score is -1.02.

`CCN1CCN(Cc2cc3n(n2)CCN(C(=O)c2cccc4ccnn24)C3)CC1`: the “% Inhibition” value is listed as -3% and the Z score is given as 0.42.

Turning to `NC(=O)[C@@H]1CN(Cc2csc3c(Cl)cccc23)CCO1`, the “% Inhibition” value was 10% and the Z score was -0.85.

In the case of `Cc1cc(C)c(C(=O)Cn2nc3ccc(-c4ccc(Cl)cc4)nn3c2=O)c(C)c1`, the “% Inhibition” value came to 33% and the Z score was -0.89.

For the molecule `COc1ccc(C)cc1CN[C@@H](C)c1nnc2n1CCC2`, the “% Inhibition” value was -12% and the Z score is 1.69.

Regarding `C[C@]1(NC(=O)Nc2ccc(C3CCC3)cn2)CCS(=O)(=O)C1`, the “% Inhibition” value is on record as -7% and the Z score is reported as 0.9.

In the case of `NC(=O)C[C@H]1CCCN(c2ncc(-c3ccccc3)s2)CC1`, the “% Inhibition” value is listed as -11% and the Z score amounted to 1.56.

For the molecule `CO[C@@]12CC[C@H](O)C[C@@H]1N(C(=O)c1cc(=O)n(-c3ccccc3)[nH]1)CC2`, the “% Inhibition” value was -3% and the Z score is 0.47.

With `COC(c1ccc(-c2cc(C)ccc2CO)cc1)C(C)N` (centres undefined), the “% Inhibition” value is given as -2% and the Z score came to 0.31.

As for `O=C(NCc1ccccn1)c1ccc2c3c(cccc13)CC2`, the “% Inhibition” value came out at 3% and the Z score is on record as -0.38.
